Sequences with one replicate were seen in a single cluster, so their values are uncertain.
Test system: ATP
Assay: switch fluorescence ratio, 500 uM ATP over buffer (Cy3 cluster intensity, sum of 5 cycles each) (fold (ratio)); higher = stronger signal-on switching upon ATP binding; sequences stand for … in TCGTCGGCAGCGTCAGATGTGTATAAGAGACAGTTTTTTTTTTTTTTTTTTTTTTTTT…TC
Conditions: aptamer strand: ATP DNA aptamer (quencher-CACCTGGGGGAGTATTGCGGAGGAAGG + anchor), 100 nM annealed; ATP concentration: 500 uM; one replicate
In short: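 Clusters carrying Cy3-labelled switching strands on a modified Illumina MiSeq flow-cell were annealed to 100 nM quencher-labelled ATP aptamer and imaged in selection buffer. They were imaged again after 15 min with 500 uM ATP at 22 °C, over five buffer/ATP cycles with NaOH stripping and re-annealing in between. For each cluster, the fluorescence ratio is the summed Cy3 intensity of the target cycles divided by that of the buffer cycles, averaged per switch-domain sequence. Clusters outside 100-1000 RFU were left out.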
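Also: ATP exposure 15 min at 22 °C before imaging.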

CAAAAAAATT was tested, and the switch fluorescence ratio was 0.974.
TTTTATTCCA was tested, and the switch fluorescence ratio was 0.965.
CGCGGGGG gave a switch fluorescence ratio of 1.03.
For CCAATCGGAG, the switch fluorescence ratio was 1.01.
For AACGCCCCAA, the switch fluorescence ratio was 1.08.
For TGTATTTGAA, the switch fluorescence ratio was 1.01.
In the case of CAATGGTGTA, the switch fluorescence ratio is reported as 1.
Sequence TTGCATGACT has a switch fluorescence ratio of 1.05.
ACTACCTAGG was tested, and the switch fluorescence ratio was 1.18.
GTGTTAGATA gave a switch fluorescence ratio of 1.04.
ACTGGAATGG gave a switch fluorescence ratio of 0.969.
With GAATAAGAAT the switch fluorescence ratio was 1.04.
Work on ACAAAGTTGA yielded a switch fluorescence ratio of 0.986.
Work on GCCATGGGAT yielded a switch fluorescence ratio of 1.02.
With GCACGATCCC the switch fluorescence ratio was 1.36.
For ACCAATCTTA, the switch fluorescence ratio was 0.954.
CCTTTATGTG showed a switch fluorescence ratio of 1.01.
TGTATTTAGT gave a switch fluorescence ratio of 1.
GTGTCAGTCT showed a switch fluorescence ratio of 1.07.
In the case of TGGCTTTTCT, the switch fluorescence ratio is reported as 1.13.
CGAGGTTGTT showed a switch fluorescence ratio of 1.06.
Sequence CTGCGTCGGC has a switch fluorescence ratio of 1.06.
Sequence GAGGCCTCA has a switch fluorescence ratio of 1.02.
Work on GTTGAGGACG yielded a switch fluorescence ratio of 1.05.
AGAATGTTAC gave a switch fluorescence ratio of 1.06.
Sequence AGTAATCGGA has a switch fluorescence ratio of 0.956.
For GATCTTGTT, the switch fluorescence ratio was 1.
Sequence CCTCAGGCAG has a switch fluorescence ratio of 2.98.
Work on AGAGCAGTGG yielded a switch fluorescence ratio of 1.05.
In the case of ACAGAGTTCA, the switch fluorescence ratio is reported as 0.982.
AGCCTAGGTC showed a switch fluorescence ratio of 0.973.
TTTGGAGCCC was tested, and the switch fluorescence ratio was 0.981.
Work on GATGCCTACT yielded a switch fluorescence ratio of 1.03.
With TGTGCCATGA the switch fluorescence ratio was 0.983.
For CTAACCTGGA, the switch fluorescence ratio was 1.31.
GTCACTTGCG was tested, and the switch fluorescence ratio was 0.961.
CGTCCGAACT was tested, and the switch fluorescence ratio was 1.21.
GGTCGACCAC gave a switch fluorescence ratio of 1.
With TATAGAGTGG the switch fluorescence ratio was 1.
Sequence ATCGCTCCGC has a switch fluorescence ratio of 1.61.
In the case of AGTTTGGCGA, the switch fluorescence ratio is reported as 1.01.
GTTTGCGTGG gave a switch fluorescence ratio of 0.979.
For TTTGTGAACC, the switch fluorescence ratio was 1.01.
Sequence GGGCGCTACC has a switch fluorescence ratio of 0.988.
Work on TCAGTAGTAG yielded a switch fluorescence ratio of 1.04.
In the case of TGAGGGTGAA, the switch fluorescence ratio is reported as 0.948.
For CTGGTATAAA, the switch fluorescence ratio was 0.986.
CGGATGCCGG gave a switch fluorescence ratio of 1.02.
AGGTGTGCCC gave a switch fluorescence ratio of 1.
TATCGTTTAG showed a switch fluorescence ratio of 1.02.
CAGTAACCA was tested, and the switch fluorescence ratio was 1.03.
ACATTTCATT showed a switch fluorescence ratio of 1.01.
TTGGTATAAT was tested, and the switch fluorescence ratio was 1.01.
Work on AGCGAGCTAA yielded a switch fluorescence ratio of 1.03.
Work on CATTGGCATG yielded a switch fluorescence ratio of 0.98.
Sequence GCCCGATCAT has a switch fluorescence ratio of 1.
With ATAATGTAAA the switch fluorescence ratio was 1.05.
